Test results taken from PubChem BioAssay AID1347165 (National Center for Advancing Translational Sciences (NCATS), 2019).
The campaign covered roughly 220,000 compounds. About 5,700 (2.6%) were called active. Inconclusive means that the source gave no clear call. Such entries were picked first, then a sample of the others. Calls follow the shape of the dose curve; as a rule, active = well fitted inhibition curve with a large enough effect; inconclusive = small, poorly fitted or top-dose-only effect; inactive = no such curve, though single readings can be large or run the other way. Potencies of inconclusive entries are doubtful fits and often do not repeat.

biological target: Lysine-specific demethylase 5B (Homo sapiens) (UniProt Q9UGL1); assay: Primary screen for KDM5B Histone Demethylases FDH-coupled qHTS; conditions: FDH-coupled NADH fluorescence (FDH is formaldehyde dehydrogenase); activity change, negative = inhibition: at 57.7 µM (top of the series) unless noted; also: nearly all actives have a fitted effect of over 70% in size; as to activity change, negative = inhibition: 0% is about no effect
Procedure, shortened: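 Compound dilutions met 200 nM (final) KDM5BΔAP for 10 min at room temperature before substrate addition. The substrate mix held 12.5 µM H3K4me3 with cofactors 25 µM α-ketoglutarate and 50 µM Fe²⁺. NADH signal gain over 30 min defined activity.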
Potency is read from the fitted curve at half-maximal effect; tags tell the direction and shape of the fitted curve.

Chain of UniProt Q9UGL1 (Q9UGL1 whole entry, looked up): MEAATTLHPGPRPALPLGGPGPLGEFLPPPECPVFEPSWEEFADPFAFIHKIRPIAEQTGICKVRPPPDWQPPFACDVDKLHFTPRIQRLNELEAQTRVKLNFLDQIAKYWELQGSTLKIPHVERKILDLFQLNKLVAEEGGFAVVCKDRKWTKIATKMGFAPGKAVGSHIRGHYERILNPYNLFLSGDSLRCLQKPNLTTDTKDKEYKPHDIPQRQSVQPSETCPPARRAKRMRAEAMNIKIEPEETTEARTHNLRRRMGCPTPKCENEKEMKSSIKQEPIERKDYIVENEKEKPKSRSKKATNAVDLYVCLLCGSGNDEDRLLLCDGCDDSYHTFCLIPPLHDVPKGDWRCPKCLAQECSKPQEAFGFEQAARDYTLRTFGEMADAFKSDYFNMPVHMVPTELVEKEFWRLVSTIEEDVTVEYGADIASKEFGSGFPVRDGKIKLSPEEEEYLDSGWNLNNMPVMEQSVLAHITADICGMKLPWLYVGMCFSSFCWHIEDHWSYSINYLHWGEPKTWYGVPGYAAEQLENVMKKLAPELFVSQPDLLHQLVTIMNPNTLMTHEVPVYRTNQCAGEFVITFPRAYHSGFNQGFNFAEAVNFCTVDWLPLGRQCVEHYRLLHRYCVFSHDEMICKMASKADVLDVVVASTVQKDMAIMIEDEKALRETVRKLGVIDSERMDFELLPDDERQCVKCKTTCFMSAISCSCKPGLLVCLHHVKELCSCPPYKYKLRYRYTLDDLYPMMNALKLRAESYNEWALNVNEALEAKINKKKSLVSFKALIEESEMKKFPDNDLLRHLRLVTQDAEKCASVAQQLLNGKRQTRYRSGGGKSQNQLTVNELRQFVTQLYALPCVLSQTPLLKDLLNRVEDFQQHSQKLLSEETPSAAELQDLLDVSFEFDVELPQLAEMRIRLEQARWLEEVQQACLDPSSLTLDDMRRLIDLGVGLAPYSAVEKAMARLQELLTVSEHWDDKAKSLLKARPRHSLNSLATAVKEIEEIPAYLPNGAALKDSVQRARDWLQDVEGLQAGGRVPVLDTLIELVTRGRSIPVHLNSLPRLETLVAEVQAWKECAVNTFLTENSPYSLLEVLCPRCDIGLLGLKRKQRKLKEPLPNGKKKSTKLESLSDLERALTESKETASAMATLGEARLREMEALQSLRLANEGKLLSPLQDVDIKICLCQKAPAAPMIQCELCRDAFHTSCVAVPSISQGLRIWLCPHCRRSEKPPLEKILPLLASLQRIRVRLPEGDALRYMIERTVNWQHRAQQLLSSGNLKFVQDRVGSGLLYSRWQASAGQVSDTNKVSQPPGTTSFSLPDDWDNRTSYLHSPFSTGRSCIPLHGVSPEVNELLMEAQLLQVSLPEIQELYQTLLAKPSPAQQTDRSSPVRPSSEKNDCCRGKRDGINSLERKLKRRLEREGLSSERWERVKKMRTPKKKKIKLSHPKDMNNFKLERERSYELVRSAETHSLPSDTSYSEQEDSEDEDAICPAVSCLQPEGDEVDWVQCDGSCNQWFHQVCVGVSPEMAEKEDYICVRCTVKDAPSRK

Compound	Potency	activity change, negative = inhibition
O=c1[nH]nc2n1CCN(S(=O)(=O)c1ccc3c(c1)CCCC3)CC2	inactive	
Cc1cn2c(=O)cc(COc3ccccc3NC(=O)c3ccc(Cl)cc3)nc2s1	inconclusive: 35.5 µM [inhibitor, partial curve, poor fit]	
CCOC(=O)c1ccc(NC(=O)CSc2nc3c([nH]c4ccccc43)c(=O)n2C)cc1	inconclusive: 25.1 µM [inhibitor, single point]	
CC(NC(=O)c1nn(C)c(=O)c2ccccc12)c1cccs1 (centres undefined)	inactive	
CC(C)N1C[C@H](O)C[C@H]1c1nnc2n1CCN(C(=O)c1ccc3ncccc3c1)C2	inconclusive: 20 µM [inhibitor, partial curve]	
CC[C@H]1CN(C(C)=O)CC[C@H]1CC(=O)NC(C)C	inactive	
O=C(c1ccc(Cl)cc1Cl)N(CCS(=O)(=O)N1CCCCC1)Cc1cccnc1	inconclusive: 28.2 µM [inhibitor, partial curve, poor fit]	
COc1ccccc1NC(=O)C1CCN(c2cnccn2)CC1	inconclusive: 15.8 µM [inhibitor, partial curve, poor fit]	
CN(C)C(=O)COc1ccc(NC(=O)c2nn(C)c(=O)c3ccccc23)cc1	inactive	
N#Cc1ccc(CN2CCc3cc(S(=O)(=O)N4CCOCC4)ccc32)c(F)c1	inactive	
COC(=O)C1=C(C)N(c2ccc(OC)cc2)C(C)=C(C(=O)OC)C1c1ccccc1	inconclusive: 39.8 µM [inhibitor, single point]	
COC[C@@H]1CN(Cc2cc(OC)cc(OC)c2)C[C@H]1C(=O)N(C)C	inactive	
Cc1ccc2nc(C(=O)N3CCN(c4cccc(Cl)c4)CC3)cn2c1	inactive	
OC1CCCN(CC(O)COC(c2ccc(F)cc2)c2ccc(F)cc2)C1 (centres undefined)	inconclusive: 10 µM [inhibitor, full curve, poor fit]	
CCOc1ccc(-n2nc(CO)c(C(=O)NCc3cccc(OC)c3)n2)cc1	inconclusive: 35.5 µM [inhibitor, partial curve, poor fit]	
COc1cc2cc(CNc3ccccc3)c(=O)n(CC(=O)Nc3cc(C)cc(C)c3)c2cc1OC	inconclusive: 3.16 µM [inhibitor, full curve, poor fit]	
Cc1ccc(NC(=O)CSc2nccn2Cc2ccccc2Cl)cc1	inactive	
Cc1cc(C)c(NC(=O)Cn2nnc(-c3nc(-c4ccccc4)no3)c2N)c(C)c1		inconclusive: -32.2% [inhibitor]
O=C1NCCN2CC3(CCN(C(=O)NC4CCCCC4)CC3)CC12 (centres undefined)	inconclusive: 14.1 µM [inhibitor, partial curve]	
CCN(CC)c1ccc2cc(-c3nc(-c4cc(OC)c(OC)c(OC)c4)no3)c(=O)oc2c1	inconclusive: 1.78 µM [inhibitor, partial curve, poor fit]	
CN(C)CCn1cc(C(=O)c2cc(Cl)ccc2O)cc1-c1nc2ccccc2c(=O)[nH]1	inactive	
CCN(CC)C1CCOC2(CCN(C(=O)C(C)C)CC2)C1 (centres undefined)	inactive	

Compound	Potency	activity change, negative = inhibition
O=C(NCc1cccnc1)C1CCN(c2nc(-c3ccccc3)nc3c2CCC3)CC1	inconclusive: 22.4 µM [inhibitor, single point]	
CCc1ccc(-c2nc(CSCC(=O)NCCCOC)c(C)o2)cc1	inconclusive: 35.5 µM [inhibitor, single point]	
CN[C@H]1C[C@H]2c3[nH]c4c(-c5ccc6c(c5)OCO6)cccc4c3CCN2C[C@H]1[C@H](C)O	inconclusive: 20 µM [inhibitor, partial curve, poor fit]	
CCC(=O)Nc1sc2c(c1C(=O)Nc1cccc(C)c1)CCCC2	inconclusive: 28.2 µM [inhibitor, single point]	
Cc1ccc(C)c(-n2nnnc2SCc2nc3ccccc3o2)c1	inactive	
Cc1ccc(NC(=O)Cn2cc(S(=O)(=O)c3ccccc3)c(=O)c3cc4c(cc32)OCO4)cc1	inconclusive: 15.8 µM [inhibitor, partial curve, poor fit]	
CCOc1cc(C(c2c(C)[nH][nH]c2=O)c2c(C)[nH][nH]c2=O)ccc1OCc1ccc(F)cc1	inconclusive: 22.4 µM [inhibitor, partial curve, poor fit]	
Cc1cccc(-c2c3c(=O)n(C)c(=O)n(C)c3c3cnc4ccccc4n23)c1	inconclusive: 15.8 µM [inhibitor, partial curve, poor fit]	
CC(C)(O)CCc1cccc(C(=O)N2CCC(Nc3ncccn3)CC2)c1	inconclusive: 28.2 µM [inhibitor, partial curve, poor fit]	
COc1ccc(C2c3[nH]c4ccc(OC)cc4c3CCN2C(=O)Nc2ccccc2)cc1 (centres undefined)	inconclusive: 25.1 µM [inhibitor, single point]	
CCOc1ccccc1C(=O)NC1CCN(c2cc(-c3ccc(Cl)cc3)[nH]n2)CC1	inactive	
O=C1CN(C(=O)CNCc2cccc(Cl)c2)c2ccccc2N1	inconclusive: 17.8 µM [inhibitor, partial curve, poor fit]	
CN(C)Cc1ccccc1CNC(=O)c1nccnc1N	inconclusive: 28.2 µM [inhibitor, partial curve, poor fit]	
Cc1cccc(NC(=O)NCC2Cn3cccc3CN2C)c1 (centres undefined)	inconclusive: 10 µM [inhibitor, partial curve, poor fit]	
Cc1cn2nnc(C(=O)NC3CCCCCC3)c2c(=O)[nH]1	inconclusive: 31.6 µM [inhibitor, partial curve, poor fit]	
Cc1ccc(OCC(=O)O/N=C(\N)c2cccc([N+](=O)[O-])c2)cc1C	inactive	
S=C(Nc1ccccc1Cl)N(Cc1ccccc1)c1ccccc1	inactive	
O=C(/C=C/c1cn(CC(O)CN2CCCCCC2)c2ccccc12)c1ccc(Br)cc1 (centres undefined)	inconclusive: 25.1 µM [inhibitor, partial curve, poor fit]	
CCN1c2cc(C(=O)Nc3ccc(C)cc3)ccc2C(=O)N2CCCCCC21 (centres undefined)	inconclusive: 35.5 µM [inhibitor, partial curve, poor fit]	
OC(c1ccc(Cl)cc1)C(CN1CCOCC1)c1ccccc1 (centres undefined)	inconclusive: 39.8 µM [inhibitor, partial curve, poor fit]	
Cc1ccc(NC(=O)C(Cc2ccccc2)n2cccc2)cc1C (centres undefined)		inconclusive: -34.6% [inhibitor]
CSc1ncc(Cl)c(C(=O)Nc2ccc(C)c(C)c2)n1	inactive	

Compound	Potency	activity change, negative = inhibition
COc1ccc2cc1Nc1ccc(cc1)C[C@H](NCc1ccncc1)C(=O)N(C)[C@H](C(=O)NCc1ccc(OC(F)(F)F)cc1)C2	inconclusive: 22.4 µM [inhibitor, partial curve, poor fit]	
COc1ccc(C(=O)NC2CCCN(c3cc(-c4ccc(Cl)cc4)[nH]n3)C2)c(C)c1 (centres undefined)	inconclusive: 17.8 µM [inhibitor, partial curve]	
CN(C)c1ccc(-c2ccnc(N[C@H]3CO[C@H]4[C@@H]3OC[C@H]4OC(=O)Nc3ccc(Oc4ccccc4)cc3)n2)cc1	inactive	
Cc1ccc(-c2nc3ccccn3c2Nc2ccc3c(c2)OCO3)o1	inconclusive: 17.8 µM [inhibitor, partial curve, poor fit]	
Cc1cccc(-c2cccc(CCOc3cnc4c(ccn4CC(=O)O)c3)c2)c1	active: 31.6 µM	
O=C(N/N=C/C1=Cc2ccccc2OC1)c1ccncc1	inconclusive: 39.8 µM [inhibitor, single point]	
COc1ccc(NC(=O)c2oc3ccc(S(=O)(=O)N(C)C4CCCCC4)cc3c2C)cc1	inconclusive: 22.4 µM [inhibitor, partial curve, poor fit]	
COc1ccc(CC(=O)N2CCCN(c3cc(-c4ccc(OC)cc4)[nH]n3)CC2)cc1	inconclusive: 17.8 µM [inhibitor, partial curve, poor fit]	
CS(=O)(=O)c1cccc(C(=O)NCc2coc(-c3cccs3)n2)c1	inactive	
COc1ccccc1-c1[nH]ncc1CN1CCCCCNC(=O)[C@@H]2CCC[C@@H]21	inconclusive: 14.1 µM [inhibitor, single point]	
COc1ccc(CN2CCC[C@H]2c2nc(-c3ccnc(N4CCOCC4)c3)no2)cc1	active: 31.6 µM	
CCC(=O)Nc1sc(Cc2ccc3c(c2)OCO3)c(C)c1C(N)=O	inconclusive: 39.8 µM [inhibitor, single point]	
CC(=O)NC1CC2(CCN(C(=O)Cc3c(C)noc3C)CC2)Oc2ccccc21 (centres undefined)	inactive	
Cc1ccc(S(=O)(=O)/C(C#N)=C/c2c(C)[nH]c3ccccc23)cc1	inconclusive: 25.1 µM [inhibitor, single point]	
N#Cc1ccccc1OCC(=O)NNC(=O)C1COc2ccccc2O1 (centres undefined)	inactive	
Cc1ccc(CNC(=O)CSc2nc3n[nH]c(C)c3c(=N)n2-c2cccc(C)c2)cc1	inconclusive: 39.8 µM [inhibitor, single point]	
COc1ccc(CNC(=O)CC[C@@H]2CNC(=O)[C@@H]3C[C@H](NC(=O)NC(C)C)CN23)cc1	inconclusive: 39.8 µM [inhibitor, single point]	
Cc1cc(-c2nn3c(-c4ccccn4)nnc3s2)c2ccccc2n1	inconclusive: 14.1 µM [inhibitor, partial curve, poor fit]	
COc1ccc(N(CC(=O)N2CCN(c3ccc(F)cc3)CC2)S(=O)(=O)c2c(C)n[nH]c2C)cc1	inconclusive: 15.8 µM [inhibitor, partial curve, poor fit]	
CC(C)CC(=O)Nc1ccc(-c2cc3cc(F)ccc3[nH]2)cc1	inconclusive: 39.8 µM [inhibitor, single point]	
